Read-outs that look alike come from different tables or passages of the source. Ends that are not written are not given here.

The subject of series [1] is Guinea Pigs. The class given is in vivo. How it is done:
At day zero group I animals except group 1B guinea pigs are injected subcutaneously with 250 micrograms of formula (IX) emulsified in incomplete Freund's adjuvant as carrier.

Series [2] concerns Guinea Pigs. Kind of series: Suppression of disease (EAE), Table VI. The class given is in vivo. How it is done:
In Table VI below, suppression type experiments are conducted on guinea pigs to show the effect of administering the disease producing native peptide (formula X). The animals are injected with the synthetic compounds IX of the invention herein at varying periods after the initial injection of the native peptide and using varying dosages.
Four groups of guinea pigs are employed. Group IV animals received neither the disease inducing native peptide (formula X) nor the synthetic compound (IX) of the invention and served as a second control group. Group III animals are treated with the native peptide (formula X) only at day zero by the injection of 25 micrograms emulsified in complete Freund's adjuvant and served as a first control group. Group I animals are injected with 25 micrograms of the disease inducing native peptide (formula X) emulsified in complete Freund's adjuvant at day zero. Also, group I animals received daily injections for 14 consecutive days of 250 micrograms each of formula I dissolved in saline administered intraveneously, the first injection being administered starting day zero. Group II animals receive the identical treatment of group I animals except group II animals receive the initial injection of formula 1 at day 7 and continued daily for 14 consecutive days, each injection containing 250 micrograms of formula (IX) in saline for a total of 3,500 micrograms.
Eighty percent of the first control group show evidence of disease within 16 days post sensitization and die by day 20. The second control group remains healthy throughout the experiment. Experiment groups I and II loose about 10% of body weight at day 14-16 and begin to gain weight thereafter.

Series [3] concerns Guinea Pigs. The format is in vivo. The source says: (§1) prepared according to Example 2, supra.
This is another data set of the same source.

Series [4] deals with Rabbits. The class given is in vivo. How it is done: Group III animals except group IIIB rabbits are injected intraveneously with 1500 micrograms of formula (IX).
In series [5] the test system is Rats.
The test system of series [6] is guinea pigs, rabbits and rats. The settings on record: lesions characteristic of the disease.
Series [7] relates to Lewis Rats.
For series [8], the system named is Rabbits. The format is in vivo.
Excerpt: as §1
The source holds these as a separate data set.

Series [9] concerns Guinea Pigs. Kind of series: Specificity of delayed type skin hypersensitivity response (Table III). The class given is in vivo. How it is done:
Guinea pigs are sensitized (10 animals/group) with 500 μg each of compound (V) (prepared according to Example 1, supra.), myelin basic protein (BP), the alpha -1 component of calf skin (α1 -- calf) and the alpha -1 component of guinea pig collagen (α1 -- g.p.), emulsified in complete Freund's adjuvant. At day 11 after sensitization, the animals were skin tested with various doses of the specific antigens dissolved in saline. Positive responses are indicated by erythema at the skin test site. A control group is administered saline.

Series [10] relates to Guinea Pigs.
In series [11] the test system is Guinea Pigs. Kind of series: Non-encephalitogenic properties of Compound V, disease index (Table II). The class given is in vivo. Particulars: Day 30; 0.025 mg antigen in CFA, single administration. The source says:
A number of guinea pigs are divided into equal groups I, II, III, IV, V, VI and VII. Each of groups I, II, III and IV are given a single subcutaneous administration of the compound (V) (formula: H -- Phe -- Ser -- Trp -- Gln -- Lys )4 Gly -- OH) prepared according to Example 1. supra. The dose administered, in Complete Freund's adjuvant and the disease index (number of animals showing disease symptons/number tested) obtained after 30 and 120 days, respectfully, are given in Table II below. Groups, V, VI and VII serve as controls. Group V received a single administration of the myelin basic protein (BP), group VI received a single administration of peptide E (E), the encephalitogenic region derived from the encephalitogenic basic protein. Group VII received a single administration of Complete Freund's adjuvant alone.
The figures show the number of diseased guinea pigs per number tested. The disease index for experimental allergic encephalomyelitis (EAE) is reported in terms of clinical and histophathological criteria by day 30 following sensitization.

Where [12] appears, read: 30 days, 500 μg single s.c. dose in complete Freund's adjuvant.
The mark [13] stands for this setting: 90 days, 500 μg single s.c. dose in complete Freund's adjuvant.
Setting [14] is: in animals sensitized with compound V or BP.
[15] abbreviates: Group 5: challenge 100 μg BP in FCA, treated with FIA only.
Where [16] appears, read: Group 7: challenge 150 μg BP in FCA, treated with FIA only.
[17] abbreviates: Group 8: challenge 150 μg BP in FCA, treated with saline only.
[18] abbreviates: Group 10: challenge 150 μg BP, treatment 1 mg BP, late stage.
The mark [19] stands for this setting: Group 11: challenge 150 μg BP in FCA, treated with FIA only, late stage.

For “FSWGAEGQK [Formula (X), H -- Phe -- Ser -- Trp -- Gly -- Ala -- Glu -- Gly -- Gln -- Lys -- OH, reference compound]”, the “Clinical Disease Score” value is reported as 13/15 in [1] (Day 37, Group IB: carrier only, 25 μg Formula X day 7); 13/15 in series [1] (Day 97, Group IB: carrier only, 25 μg Formula X day 7); 12/15 in [2] (16 Days, Group III: 25 μg formula X in CFA day 0 only); 12/15 in series [2] (30 Days, Group III: 25 μg formula X day 0 only); 12/15 in series [2] (90 Days, Group III: 25 μg formula X day 0 only); 14/15 in [3] (30 days, 20 μg (Group IV)). Also, the “Clinical Disease Score” value in [3] (90 days, 20 μg (Group IV)) is 15/15. Further, the “animals showing evidence of disease within 16 days post sensitization and dying by day 20” value in [2] (first control group (Group III), 25 micrograms formula X only) is on record as “Eighty”.
“GGWGGGGQK [Formula (IX), H -- (Gly)2 -- Trp -- (Gly)4 -- Gln -- Lys -- OH]”: the “Clinical Disease Score” value is 0/15 in [1] (Day 37, Group IA: 250 μg Formula IX daily day 0-14, no challenge); 0/15 in series [1] (Day 97, Group I: 250 μg Formula IX daily day 0-14, challenge 25 μg Formula X day 7); 0/15 in [1] (Day 97, Group IA: 250 μg Formula IX daily day 0-14, no challenge); 0/15 in series [4] (Day 37, Group III: 1500 μg Formula IX i.v. daily day 0-14, challenge 50 μg Formula XI day 7); 0/15 in [4] (Day 37, Group IIIA: 1500 μg Formula IX daily day 0-14, no challenge); 0/15 in series [4] (Day 97, Group III: 1500 μg Formula IX daily day 0-14, challenge 50 μg Formula XI day 7). The “Clinical Disease Score” value in series [4] (Day 97, Group IIIA: 1500 μg Formula IX daily day 0-14, no challenge) is reported as 0/15; in series [5] (Day 37, Group II: 150 μg Formula IX s.c. in saline daily day 0-14, challenge 50 μg B.P. day 7), 0/15; in series [5] (Day 37, Group IIA: 150 μg Formula IX daily day 0-14, no challenge) it was 0/15; in series [5] (Day 97, Group II: 150 μg Formula IX daily day 0-14, challenge 50 μg B.P. day 7) it was 0/15; in series [5] (Day 97, Group IIA: 150 μg Formula IX daily day 0-14, no challenge) it was 0/15; in series [2] (16 Days, Group I: 25 μg formula X in CFA day 0, 250 μg formula IX i.v. in saline daily day 0-14), 0/15. Also, the “Clinical Disease Score” value in series [2] (16 Days, Group II: 25 μg formula X in CFA day 0, 250 μg formula IX daily day 7-21) is 0/15; in [2] (30 Days, Group I: formula X day 0, 250 μg formula IX daily day 0-14), 0/15; in series [2] (30 Days, Group II: formula X day 0, 250 μg formula IX daily day 7-21), 0/15; in series [2] (90 Days, Group I: formula X day 0, 250 μg formula IX daily day 0-14), 0/15; in series [2] (90 Days, Group II: formula X day 0, 250 μg formula IX daily day 7-21), 0/15; in series [7] (30 days, 100 μg single s.c. dose in complete Freund's adjuvant), 0/10. The “Clinical Disease Score” value in series [7] (30 days, 250 μg single s.c. dose in complete Freund's adjuvant) is on record as 0/10; in series [7] (90 days, 100 μg single s.c. dose in complete Freund's adjuvant), 0/10; in series [7] (90 days, 250 μg single s.c. dose in complete Freund's adjuvant) it was 0/10; in [8] (setting [12]), 0/10; in series [8] (30 days, 1500 μg single s.c. dose in complete Freund's adjuvant), 0/10; in series [8] (setting [13]) it was 0/10. The “Clinical Disease Score” value in series [8] (90 days, 1500 μg single s.c. dose in complete Freund's adjuvant) is given as 0/10; in series [3] (30 days, 10 μg single s.c. dose in complete Freund's adjuvant, diseased/tested), 0/15; in [3] (setting [12]), 0/15; in [3] (90 days, 10 μg single s.c. dose in complete Freund's adjuvant) it was 0/15; in series [3] (setting [13]), 0/15. In series [2] (groups I and II, day 14-16, weight gain thereafter), the “loss of body weight” value is “about 10%”. Besides, the “other clinical symptoms of the disease” value in series [2] (groups I and II, period of three months) is given as “No other clinical symptoms of the disease are apparent”. The “histological examination of brain and spinal cord sections” value in series [6] is on record as “absence of lesions characteristic of the disease”.
As to “TTHYGSLPQK [Formula (XI), H -- Thr -- Thr -- His -- Tyr -- Gly -- Ser -- Leu -- Pro -- Gln -- Lys -- OH, reference compound]”, the “Clinical Disease Score” value in [4] (Day 37, Group IIIB: 50 μg Formula XI day 7 only) was 12/15; in [4] (Day 97, Group IIIB: 50 μg Formula XI day 7 only) it was 13/15; in series [8] (30 days, 50 μg (Group IV)) it was 12/15; in series [8] (90 days, 50 μg (Group IV)) it was 13/15.
With “α1 -calf: the alpha -1 component of calf skin [reference compound]”, the “delayed skin response elicited” value in series [9] (setting [14]) is “did not elicit skin hypersensitivity responses”.

B1: Basic Protein: native protein isolated from bovine myelin known to induce disease (EAE) (protein, UniProt P02687 1-169, looked up)
Myelin basic protein: AAQKRPSQRSKYLASASTMDHARHGFLPRHRDTGILDSLGRFFGSDRGAPKRGSGKDGHHAARTTHYGSLPQKAQGHRPQDENPVVHFFKNIVTPRTPPPSQGKGRGLSLSRFSWGAEGQKPGFGYGGRASDYKSAHKGLKGHDAQGTLSKIFKLGGRDSRSGSPMARR
As for B1, the “Clinical Disease Score” value is on record as 13/15 in series [5] (Day 37, Group IIB: carrier only, 50 μg B.P. day 7); 13/15 in [5] (Day 97, Group IIB: carrier only, 50 μg B.P. day 7); 8/10 in series [7] (30 days, 50 μg (Group IV)); 10/10 in series [7] (90 days, 50 μg (Group IV)). Moreover, the “Clinical EAE” value in series [10] (setting [15]) is given as 4/4; in [10] (setting [16]), 5/5; in [10] (setting [17]), 6/6; in series [10] (setting [18]) it was 4/4; in series [10] (setting [19]) it was 7/7. The “Histological EAE” value in [10] (setting [15]) is 4/4; in series [10] (setting [16]), 5/5; in series [10] (setting [17]) it was 6/6; in series [10] (setting [18]), 3/4; in series [10] (setting [19]) it was 7/7. Besides, the “Reversal clinical EAE” value is recorded as 2/4 in series [10] (Group 10: challenge 150 μg BP, treatment 1 mg BP, late stage, listed as BP) and “partially successful in reversing the disease” in [10] (Group 10: challenge 150 μg BP, treatment 1 mg BP, late stage, listed as bovine BP). For the same molecule, the “delayed skin response elicited” value in series [9] (setting [14]) is given as “positive delayed skin responses”; in series [9] (in animals sensitized with the α1-calf or α1-g.p. component of skin collagen), “negative skin responses”. In addition, the “Disease Index” value in series [11] is 9/10.

Source of the values: patent US4113858A, “Novel compounds, compositions and methods of their use” (St. Luke's Hospital, priority 1976, dated 1978).
